Residue numbers refer to the chain shown, from its start. This is one part of the list.

Among the data in PMC9911399, “Two distinct binding modes provide the RNA-binding protein RbFox with extraordinary sequence specificity” are binding signal values, retold here.

To fix the notation:
T1: RBFOX1 RRM RbFoxmut (Fox-RRM*) (Homo sapiens, UniProt Q9NWB1 109-208, R118D;E147R;N151S;E152T)
T1 sequence: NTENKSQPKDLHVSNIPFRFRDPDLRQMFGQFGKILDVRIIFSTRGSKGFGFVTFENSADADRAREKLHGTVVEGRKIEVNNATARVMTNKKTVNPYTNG

B1: UACUCGG (DNA:RNA)
RNA: GGGAGACCGGAAUUCAGAUUGUCCUACUCGGUUAAAUCCCGUCGUAGCCACCA
DNA 1: CAATCTGAATTCCGGTCTCCC
DNA 2: TGGTGGCTACGACGGGATT
B2: GCAUGUU (DNA:RNA)
RNA: B1 RNA with U25G, A26C, C27A, C29G, G30U, G31U
DNA 1: CAATCTGAATTCCGGTCTCCC
DNA 2: TGGTGGCTACGACGGGATT
B3: UCAAGAU (DNA:RNA)
RNA: B1 RNA with A26C, C27A, U28A, C29G, G30A, G31U
DNA 1: CAATCTGAATTCCGGTCTCCC
DNA 2: TGGTGGCTACGACGGGATT
B4: CUCAACA (DNA:RNA)
RNA: B1 RNA with U25C, A26U, U28A, C29A, G30C, G31A
DNA 1: CAATCTGAATTCCGGTCTCCC
DNA 2: TGGTGGCTACGACGGGATT
B5: GUAGGGG (DNA:RNA)
RNA: B1 RNA with U25G, A26U, C27A, U28G, C29G
DNA 1: CAATCTGAATTCCGGTCTCCC
DNA 2: TGGTGGCTACGACGGGATT
B6: UGUCUCG (DNA:RNA)
RNA: B1 RNA with A26G, C27U, U28C, C29U, G30C
DNA 1: CAATCTGAATTCCGGTCTCCC
DNA 2: TGGTGGCTACGACGGGATT
B7: ACAUAAC (DNA:RNA)
RNA: B1 RNA with U25A, A26C, C27A, C29A, G30A, G31C
DNA 1: CAATCTGAATTCCGGTCTCCC
DNA 2: TGGTGGCTACGACGGGATT
B8: CUUCCCU (DNA:RNA)
RNA: B1 RNA with U25C, A26U, C27U, U28C, G30C, G31U
DNA 1: CAATCTGAATTCCGGTCTCCC
DNA 2: TGGTGGCTACGACGGGATT
B9: CUAGAUG (DNA:RNA)
RNA: B1 RNA with U25C, A26U, C27A, U28G, C29A, G30U
DNA 1: CAATCTGAATTCCGGTCTCCC
DNA 2: TGGTGGCTACGACGGGATT
B10: GACUAAU (DNA:RNA)
RNA: B1 RNA with U25G, C29A, G30A, G31U
DNA 1: CAATCTGAATTCCGGTCTCCC
DNA 2: TGGTGGCTACGACGGGATT
B11: CUCCCCA (DNA:RNA)
RNA: B1 RNA with U25C, A26U, U28C, G30C, G31A
DNA 1: CAATCTGAATTCCGGTCTCCC
DNA 2: TGGTGGCTACGACGGGATT
B12: CCUGUCA (DNA:RNA)
RNA: GGGAGACCGGAAUUCAGAUUGUCCCCUGUCAUUAAAUCCCGUCGUAGCCACCA
DNA 1: CAATCTGAATTCCGGTCTCCC
DNA 2: TGGTGGCTACGACGGGATT
B13: UUGUGUC (DNA:RNA)
RNA: B1 RNA with A26U, C27G, C29G, G30U, G31C
DNA 1: CAATCTGAATTCCGGTCTCCC
DNA 2: TGGTGGCTACGACGGGATT
B14: CAUUGCA (DNA:RNA)
RNA: B12 RNA with C26A, G28U, U29G
DNA 1: CAATCTGAATTCCGGTCTCCC
DNA 2: TGGTGGCTACGACGGGATT
B15: CGUAGGC (DNA:RNA)
RNA: B12 RNA with C26G, G28A, U29G, C30G, A31C
DNA 1: CAATCTGAATTCCGGTCTCCC
DNA 2: TGGTGGCTACGACGGGATT
B16: CUACUCC (DNA:RNA)
RNA: B12 RNA with C26U, U27A, G28C, A31C
DNA 1: CAATCTGAATTCCGGTCTCCC
DNA 2: TGGTGGCTACGACGGGATT
B17: CACUGUA (DNA:RNA)
RNA: B1 RNA with U25C, C29G, G30U, G31A
DNA 1: CAATCTGAATTCCGGTCTCCC
DNA 2: TGGTGGCTACGACGGGATT
B18: GCUGUCG (DNA:RNA)
RNA: B12 RNA with C25G, A31G
DNA 1: CAATCTGAATTCCGGTCTCCC
DNA 2: TGGTGGCTACGACGGGATT
B19: CAAAAUG (DNA:RNA)
RNA: B1 RNA with U25C, C27A, U28A, C29A, G30U
DNA 1: CAATCTGAATTCCGGTCTCCC
DNA 2: TGGTGGCTACGACGGGATT
B20: CGUUACA (DNA:RNA)
RNA: B12 RNA with C26G, G28U, U29A
DNA 1: CAATCTGAATTCCGGTCTCCC
DNA 2: TGGTGGCTACGACGGGATT
B21: GUUUUUU (DNA:RNA)
RNA: B12 RNA with C25G, C26U, G28U, C30U, A31U
DNA 1: CAATCTGAATTCCGGTCTCCC
DNA 2: TGGTGGCTACGACGGGATT
B22: CCUGUGU (DNA:RNA)
RNA: B12 RNA with C30G, A31U
DNA 1: CAATCTGAATTCCGGTCTCCC
DNA 2: TGGTGGCTACGACGGGATT
B23: AGGUCUA (DNA:RNA)
RNA: B1 RNA with U25A, A26G, C27G, G30U, G31A
DNA 1: CAATCTGAATTCCGGTCTCCC
DNA 2: TGGTGGCTACGACGGGATT
B24: ACCCUCA (DNA:RNA)
RNA: B12 RNA with C25A, U27C, G28C
DNA 1: CAATCTGAATTCCGGTCTCCC
DNA 2: TGGTGGCTACGACGGGATT
B25: GCCGUUG (DNA:RNA)
RNA: B12 RNA with C25G, U27C, C30U, A31G
DNA 1: CAATCTGAATTCCGGTCTCCC
DNA 2: TGGTGGCTACGACGGGATT
B26: CCUCACG (DNA:RNA)
RNA: B12 RNA with G28C, U29A, A31G
DNA 1: CAATCTGAATTCCGGTCTCCC
DNA 2: TGGTGGCTACGACGGGATT
B27: CAGUCUG (DNA:RNA)
RNA: B1 RNA with U25C, C27G, G30U
DNA 1: CAATCTGAATTCCGGTCTCCC
DNA 2: TGGTGGCTACGACGGGATT
B28: CCGAGCA (DNA:RNA)
RNA: B12 RNA with U27G, G28A, U29G
DNA 1: CAATCTGAATTCCGGTCTCCC
DNA 2: TGGTGGCTACGACGGGATT
B29: AUGAUAA (DNA:RNA)
RNA: B12 RNA with C25A, C26U, U27G, G28A, C30A
DNA 1: CAATCTGAATTCCGGTCTCCC
DNA 2: TGGTGGCTACGACGGGATT
B30: UAGCGGA (DNA:RNA)
RNA: B1 RNA with C27G, U28C, C29G, G31A
DNA 1: CAATCTGAATTCCGGTCTCCC
DNA 2: TGGTGGCTACGACGGGATT
B31: UGUAGCA (DNA:RNA)
RNA: B12 RNA with C25U, C26G, G28A, U29G
DNA 1: CAATCTGAATTCCGGTCTCCC
DNA 2: TGGTGGCTACGACGGGATT

For this assay, the target named is T1, RBFOX1 RRM RbFoxmut (Fox-RRM*). Put plainly: EMSA; HiTS-Eq, 1 nM pool, 10 min; buffer printed only for the single-RNA assays: 10 mM Tris pH 7.5, 150 mM NaCl, 3.4 mM EDTA, 0.001% NP-40, 30 C. The note with it: tags: His6 N-terminal (pET28a); label: 5' 32P. The method, boiled down:
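Relative association constants, normalised to the cognate motif, were derived by comparing read counts of each RNA species with those of the control reaction. The RNA sequenced was the free fraction, separated by 8% native PAGE after a 10 min equilibration in 50 µL of 1 nM 5′-radiolabelled RNA (7 randomized nucleotides) with increasing concentrations of purified wild-type or mutant RbFox RRM.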
(In general: In EMSA bound probe runs differently from free probe, usually more slowly.)
Turning to B1, the binding signal is 0.0779 KA relative to UGCAUGU. Turning to B2, the binding signal is 0.776 KA relative to UGCAUGU.

Take B3: the binding signal is 0.0694 KA relative to UGCAUGU. Consider B4, for which the binding signal is 0.0885 KA relative to UGCAUGU. With B5, the binding signal was 0.0798 KA relative to UGCAUGU.

Turning to B6, the binding signal was 0.32 KA relative to UGCAUGU. In the case of B7, the binding signal is 0.0862 KA relative to UGCAUGU. Regarding B8, the binding signal is 0.0567 KA relative to UGCAUGU. With B9, the binding signal is 0.139 KA relative to UGCAUGU. As for B10, the figure is 0.0983 KA relative to UGCAUGU; as for B11, 0.0634 KA relative to UGCAUGU; as for B12, 0.0946 KA relative to UGCAUGU. Turning to B13, the binding signal was 0.357 KA relative to UGCAUGU. The result for B14 reads 0.292 KA relative to UGCAUGU. With B15, the binding signal was 0.0943 KA relative to UGCAUGU. On to B16, for which the binding signal was 0.0575 KA relative to UGCAUGU.

B17: the binding signal was 0.209 KA relative to UGCAUGU. The result for B18 reads 0.11 KA relative to UGCAUGU.

Take B19: the binding signal is 0.116 KA relative to UGCAUGU. As to B20, the binding signal was 0.0878 KA relative to UGCAUGU.

Take B21: the binding signal was 0.0932 KA relative to UGCAUGU. The result for B22 reads 0.142 KA relative to UGCAUGU; that for B23, 0.0884 KA relative to UGCAUGU; that for B24, 0.108 KA relative to UGCAUGU. B25: the binding signal is 0.103 KA relative to UGCAUGU. Regarding B26, the binding signal is 0.102 KA relative to UGCAUGU. As for B27, the binding signal was 0.0891 KA relative to UGCAUGU.

In the case of B28, the binding signal was 0.128 KA relative to UGCAUGU.

Take B29: the binding signal was 0.111 KA relative to UGCAUGU. For the molecule B30, the binding signal was 0.0808 KA relative to UGCAUGU. As for B31, the figure is 0.172 KA relative to UGCAUGU.
